From PubChem BioAssay AID588591 (National Center for Advancing Translational Sciences (NCATS), 2011)
The campaign covered roughly 390,000 compounds. About 4,700 (1.2%) were called active. Inconclusive results, whose numbers are uncertain, are shown with a selection of clear calls. Calls come from the whole dose curve; as a rule, active = well fitted inhibition curve with a large enough effect; inconclusive = small, poorly fitted or top-dose-only effect, or another doubt; inactive = no such curve, though single readings can be large or run the other way. Potencies beside an inconclusive call are fits to weak or partial responses and may not hold up.

Biological target: DNA polymerase eta (Homo sapiens) (UniProt Q9Y253)
Assay: qHTS for Inhibitors of Polymerase Eta
Conditions: recombinant Pol eta, fluorescent DNA replication assay; series mostly up to 114 µM
In short: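 Pol eta (10 nM) was preincubated with compounds for 15 min at room temperature, after which fluorescent replication substrate (50 nM final) was added to start the reaction. Fluorescence was read kinetically at 0 and 10 min.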
Potency is the fitted concentration of half-maximal effect; tags give direction and shape of the fitted curve.

UniProt Q9Y253, sequence (Q9Y253 whole entry, looked up): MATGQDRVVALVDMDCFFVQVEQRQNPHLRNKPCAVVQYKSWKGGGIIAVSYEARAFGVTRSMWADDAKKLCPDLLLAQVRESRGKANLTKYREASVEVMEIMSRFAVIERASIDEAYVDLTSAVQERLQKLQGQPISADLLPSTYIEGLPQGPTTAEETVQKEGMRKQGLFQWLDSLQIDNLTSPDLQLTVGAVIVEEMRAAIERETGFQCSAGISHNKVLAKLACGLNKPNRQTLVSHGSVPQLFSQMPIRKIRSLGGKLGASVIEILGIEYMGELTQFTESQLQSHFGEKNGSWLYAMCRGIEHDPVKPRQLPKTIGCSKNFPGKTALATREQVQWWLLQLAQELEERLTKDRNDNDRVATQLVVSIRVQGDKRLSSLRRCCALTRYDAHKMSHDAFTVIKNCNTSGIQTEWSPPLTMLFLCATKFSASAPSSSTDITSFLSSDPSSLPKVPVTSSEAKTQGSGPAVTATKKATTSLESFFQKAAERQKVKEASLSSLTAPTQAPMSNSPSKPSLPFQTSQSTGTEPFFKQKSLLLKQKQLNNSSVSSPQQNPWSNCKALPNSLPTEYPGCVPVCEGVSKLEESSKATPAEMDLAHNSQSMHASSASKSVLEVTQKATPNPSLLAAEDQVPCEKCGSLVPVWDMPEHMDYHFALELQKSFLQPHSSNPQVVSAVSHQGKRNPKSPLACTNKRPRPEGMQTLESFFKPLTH

Row | SMILES | Potency
1 | COc1cc(-c2ccc(Nc3ccccc3C(=O)O)c(OC)c2)ccc1Nc1ccccc1C(=O)O | active: 10 µM
2 | COc1cc(OC)c(C(=O)OC(C)C(=O)Nc2cccc(C(F)(F)F)c2)cc1OC (centres undefined) | inconclusive: 44.7 µM [inhibitor, partial curve, poor fit]
3 | Cc1cccc(NC(=O)c2ccc(S(=O)(=O)NCc3cccnc3)cc2)c1 | inconclusive: 79.4 µM [inhibitor, partial curve, poor fit]
4 | CNc1ccc(Br)cc(C(=O)/C=C/c2ccc(Cl)cc2Cl)c1=O | active: 50.1 µM
5 | CCCOc1ccc(-c2nn(-c3ccccc3)cc2/C=C2\SC(N)=NC2=O)cc1 | inactive
6 | COC(=O)C/C=N/N=C1/NC(=O)/C(=C/C(=O)O)S1 | active: 39.8 µM
7 | COCC1CCN(Cc2c(C(=O)N3CCc4ccccc4C3)nc3ccc(Cl)cn23)C1 (centres undefined) | inconclusive: 17.8 µM [inhibitor, full curve, poor fit]
8 | COc1cc(C2CC(=O)Nc3cc4c(cc32)OCCO4)cc(Br)c1OC (centres undefined) | inactive
9 | COc1ccc(C2CC(c3ccccc3)=NN2S(=O)(=O)c2ccc(C)cc2)c(OC)c1 (centres undefined) | inconclusive: 25.1 µM [inhibitor, partial curve, poor fit]
10 | CCN(CC)c1nc(N)c2c(N)n(-c3ccccc3C)c(=S)c(C#N)c2c1C#N | active: 44.7 µM
11 | CCCc1cc(C(N)=O)c(NC(=O)c2cc(C)on2)s1 | inconclusive: 89.1 µM [inhibitor, single point]
12 | O=c1c(=Nc2ccccc2O)c(=O)c2ccccc12 | inconclusive: 89.1 µM [inhibitor, partial curve, poor fit]
13 | COc1ccc(Br)cc1C(=O)NC(=S)Nc1cc(-c2nc3ccccc3[nH]2)ccc1C | inconclusive: 3.55 µM [inhibitor, full curve]
14 | COc1cc(C)c2c(c1C=O)Oc1c(c(C)c(O)c3c1C(O)OC3=O)OC2=O (centres undefined) | active: 15.8 µM
15 | CCOc1ccccc1N=C1SC(CC(=O)Nc2ccc(OC)cc2OC)C(=O)N1CCC1=CCCCC1 (centres undefined) | inconclusive: 15.8 µM [inhibitor, partial curve, poor fit]
16 | Cc1c2cnn(CC(=O)NCCc3ccccc3)c(=O)c2c(C)n1Cc1ccccc1 | inactive
17 | COc1ccc(C(=O)/C=C/c2ccc(OC)c(O)c2)c(F)c1 | inconclusive: 15.8 µM [inhibitor, full curve, poor fit]
18 | COc1cc(NC(=O)CSc2ncc(S(=O)(=O)c3ccc(Br)cc3)c(=O)[nH]2)cc(OC)c1 | inconclusive: 89.1 µM [inhibitor, single point]
19 | CC(=O)c1ccc(/C=C/c2nc3ccccc3n2C)o1 | inactive
20 | Cc1ccc(C(=O)O)cc1N1C(=O)c2cccc3c([N+](=O)[O-])ccc(c23)C1=O | active: 10 µM
21 | Cn1c(SCC(=O)c2c(N)n(C)c(=O)n(C)c2=O)nnc1-c1ccc(F)cc1 | inconclusive: 20 µM [inhibitor, single point]
22 | O=C(COC(=O)c1ccc([N+](=O)[O-])o1)NC12CC3CC(CC(C3)C1)C2 | active: 79.4 µM

Row | SMILES | Potency
23 | c1ccc(-c2csc3ncnc(N4CCN(Cc5ccc6c(c5)OCO6)CC4)c23)cc1 | inactive
24 | C/C(=C/c1oc2ccc(O)cc2c1[N+](=O)[O-])N(C)C | inconclusive: 35.5 µM [inhibitor, single point]
25 | O=C(CCCCCCCC(=O)c1ccccc1)c1ccccc1 | inactive
26 | Cc1ccc2nc(-c3ccccc3)cn2c1 | inactive
27 | O=C(O)Cn1c(=O)c2c3c(sc2n(Cc2ccc(Cl)cc2Cl)c1=O)CCCC3 | inconclusive: 89.1 µM [inhibitor, partial curve, poor fit]
28 | COc1ccc(C2C=C(c3ccccc3)Nc3nc(NS(=O)(=O)c4ccc(Cl)cc4)nn32)cc1 (centres undefined) | active: 89.1 µM
29 | Cc1nn(-c2ccc(F)cc2)c2sc(C(=O)OC3CCOC3=O)cc12 (centres undefined) | inconclusive: 31.6 µM [inhibitor, single point]
30 | Cc1cccc(OCC(=O)Nc2nonc2NC(=O)COc2cccc(C)c2)c1 | inconclusive: 17.8 µM [inhibitor, partial curve, poor fit]
31 | Cc1coc2c(C)c3oc(=O)c(CCC(=O)N(C)CC(=O)O)c(C)c3cc12 | active: 20 µM
32 | CCc1c(C)nc2cc(-c3ccc(OC)c(OC)c3)nn2c1NCC1CC1 | inconclusive: 89.1 µM [inhibitor, partial curve, poor fit]
33 | O=C(CNc1ccccc1)N/N=C/c1ccc([N+](=O)[O-])o1 | inconclusive: 25.1 µM [inhibitor, partial curve]
34 | CC(C(=O)N1CCOCC1)(c1ccccc1)c1ccccc1 | inactive
35 | COc1ccc(OC)c(CCNC(=O)C2CCN(c3nnc(-n4cccc4)s3)CC2)c1 | inconclusive: 39.8 µM [inhibitor, partial curve, poor fit]
36 | COc1cc(/C=C2\C(=N)N3N=C(S(C)(=O)=O)SC3=NC2=O)ccc1OS(=O)(=O)c1ccc(C)cc1 | active: 31.6 µM
37 | C=C(C)C(=O)Nc1cccc(C2=NOC3(C2)C[C@@H](C(N)=O)N(C(=O)CCCCC)C3)c1 (some centres undefined) | active: 1.41 µM
38 | COc1ccc2c(c1)Cc1sc(NC(=O)c3cccs3)nc1-2 | inconclusive: 17.8 µM [inhibitor, partial curve, poor fit]
39 | CCc1ccc(C(=O)c2cn(CC(=O)Nc3ccc4c(c3)OCO4)c3cc(OC)c(OC)cc3c2=O)cc1 | active: 79.4 µM
40 | CCOCCSc1nc2c(c(-c3cccs3)c1C#N)CC/C2=C/c1cccs1 | inactive
41 | O=C(NCCc1ccccc1Cl)c1ccc(Cn2c(=O)c3cccn3c3cccnc32)cc1 | inconclusive: 79.4 µM [inhibitor, partial curve]
42 | Cc1ccccc1N1CC(c2nc3ccccc3n2CCC2CCCCC2)CC1=O (centres undefined) | inactive
43 | CCOc1ccc(C(=O)NCC(=O)OC(C)C(=O)NCc2ccco2)cc1OCC (centres undefined) | inconclusive: 35.5 µM [inhibitor, partial curve, poor fit]
44 | CN(C)c1ccc(C=C2SC(=S)NC2=O)cc1 | inconclusive: 25.1 µM [inhibitor, full curve]
